Experimental findings from PMC9911399, “Two distinct binding modes provide the RNA-binding protein RbFox with extraordinary sequence specificity” are described below.

T1: RBFOX1 RRM RbFoxmut (Fox-RRM*) (Homo sapiens, UniProt Q9NWB1 109-208, R118D;E147R;N151S;E152T)
T1 sequence: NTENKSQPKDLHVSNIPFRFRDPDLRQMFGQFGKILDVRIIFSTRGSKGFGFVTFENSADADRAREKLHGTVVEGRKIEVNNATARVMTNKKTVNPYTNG

B1: UAUAGCC (DNA:RNA)
RNA: GGGAGACCGGAAUUCAGAUUGUCCUAUAGCCUUAAAUCCCGUCGUAGCCACCA
DNA 1: CAATCTGAATTCCGGTCTCCC
DNA 2: TGGTGGCTACGACGGGATT
B2: UGUCCCU (DNA:RNA)
RNA: B1 RNA with A26G, A28C, G29C, C31U
DNA 1: CAATCTGAATTCCGGTCTCCC
DNA 2: TGGTGGCTACGACGGGATT
B3: UGGUCGU (DNA:RNA)
RNA: B1 RNA with A26G, U27G, A28U, G29C, C30G, C31U
DNA 1: CAATCTGAATTCCGGTCTCCC
DNA 2: TGGTGGCTACGACGGGATT
B4: CUGGAUU (DNA:RNA)
RNA: GGGAGACCGGAAUUCAGAUUGUCCCUGGAUUUUAAAUCCCGUCGUAGCCACCA
DNA 1: CAATCTGAATTCCGGTCTCCC
DNA 2: TGGTGGCTACGACGGGATT
B5: UGGGUUA (DNA:RNA)
RNA: B4 RNA with C25U, U26G, A29U, U31A
DNA 1: CAATCTGAATTCCGGTCTCCC
DNA 2: TGGTGGCTACGACGGGATT
B6: AGGGAGA (DNA:RNA)
RNA: B4 RNA with C25A, U26G, U30G, U31A
DNA 1: CAATCTGAATTCCGGTCTCCC
DNA 2: TGGTGGCTACGACGGGATT
B7: CGUAGGU (DNA:RNA)
RNA: B1 RNA with U25C, A26G, C30G, C31U
DNA 1: CAATCTGAATTCCGGTCTCCC
DNA 2: TGGTGGCTACGACGGGATT
B8: GUACUAG (DNA:RNA)
RNA: B4 RNA with C25G, G27A, G28C, A29U, U30A, U31G
DNA 1: CAATCTGAATTCCGGTCTCCC
DNA 2: TGGTGGCTACGACGGGATT
B9: GUAAAUU (DNA:RNA)
RNA: B4 RNA with C25G, G27A, G28A
DNA 1: CAATCTGAATTCCGGTCTCCC
DNA 2: TGGTGGCTACGACGGGATT
B10: GGCGGGG (DNA:RNA)
RNA: B4 RNA with C25G, U26G, G27C, A29G, U30G, U31G
DNA 1: CAATCTGAATTCCGGTCTCCC
DNA 2: TGGTGGCTACGACGGGATT
B11: ACGAGGU (DNA:RNA)
RNA: B4 RNA with C25A, U26C, G28A, A29G, U30G
DNA 1: CAATCTGAATTCCGGTCTCCC
DNA 2: TGGTGGCTACGACGGGATT
B12: GUCUUAU (DNA:RNA)
RNA: B4 RNA with C25G, G27C, G28U, A29U, U30A
DNA 1: CAATCTGAATTCCGGTCTCCC
DNA 2: TGGTGGCTACGACGGGATT
B13: CAGAGAC (DNA:RNA)
RNA: B1 RNA with U25C, U27G, C30A
DNA 1: CAATCTGAATTCCGGTCTCCC
DNA 2: TGGTGGCTACGACGGGATT
B14: GAUAAUA (DNA:RNA)
RNA: B1 RNA with U25G, G29A, C30U, C31A
DNA 1: CAATCTGAATTCCGGTCTCCC
DNA 2: TGGTGGCTACGACGGGATT
B15: GAACCUC (DNA:RNA)
RNA: B1 RNA with U25G, U27A, A28C, G29C, C30U
DNA 1: CAATCTGAATTCCGGTCTCCC
DNA 2: TGGTGGCTACGACGGGATT
B16: AACAUGU (DNA:RNA)
RNA: B1 RNA with U25A, U27C, G29U, C30G, C31U
DNA 1: CAATCTGAATTCCGGTCTCCC
DNA 2: TGGTGGCTACGACGGGATT
B17: GUUGCAA (DNA:RNA)
RNA: B4 RNA with C25G, G27U, A29C, U30A, U31A
DNA 1: CAATCTGAATTCCGGTCTCCC
DNA 2: TGGTGGCTACGACGGGATT
B18: UUCAGAU (DNA:RNA)
RNA: B1 RNA with A26U, U27C, C30A, C31U
DNA 1: CAATCTGAATTCCGGTCTCCC
DNA 2: TGGTGGCTACGACGGGATT
B19: GAGCUCU (DNA:RNA)
RNA: B4 RNA with C25G, U26A, G28C, A29U, U30C
DNA 1: CAATCTGAATTCCGGTCTCCC
DNA 2: TGGTGGCTACGACGGGATT
B20: UACUAUA (DNA:RNA)
RNA: B4 RNA with C25U, U26A, G27C, G28U, U31A
DNA 1: CAATCTGAATTCCGGTCTCCC
DNA 2: TGGTGGCTACGACGGGATT
B21: UUCGAAC (DNA:RNA)
RNA: B4 RNA with C25U, G27C, U30A, U31C
DNA 1: CAATCTGAATTCCGGTCTCCC
DNA 2: TGGTGGCTACGACGGGATT
B22: AGAUAGG (DNA:RNA)
RNA: B4 RNA with C25A, U26G, G27A, G28U, U30G, U31G
DNA 1: CAATCTGAATTCCGGTCTCCC
DNA 2: TGGTGGCTACGACGGGATT
B23: AUAAAUU (DNA:RNA)
RNA: B4 RNA with C25A, G27A, G28A
DNA 1: CAATCTGAATTCCGGTCTCCC
DNA 2: TGGTGGCTACGACGGGATT
B24: GCCACGC (DNA:RNA)
RNA: B1 RNA with U25G, A26C, U27C, G29C, C30G
DNA 1: CAATCTGAATTCCGGTCTCCC
DNA 2: TGGTGGCTACGACGGGATT
B25: GUUUCGU (DNA:RNA)
RNA: B4 RNA with C25G, G27U, G28U, A29C, U30G
DNA 1: CAATCTGAATTCCGGTCTCCC
DNA 2: TGGTGGCTACGACGGGATT
B26: UCUUCGU (DNA:RNA)
RNA: B1 RNA with A26C, A28U, G29C, C30G, C31U
DNA 1: CAATCTGAATTCCGGTCTCCC
DNA 2: TGGTGGCTACGACGGGATT
B27: ACGGAUC (DNA:RNA)
RNA: B4 RNA with C25A, U26C, U31C
DNA 1: CAATCTGAATTCCGGTCTCCC
DNA 2: TGGTGGCTACGACGGGATT
B28: CGAAAGC (DNA:RNA)
RNA: B4 RNA with U26G, G27A, G28A, U30G, U31C
DNA 1: CAATCTGAATTCCGGTCTCCC
DNA 2: TGGTGGCTACGACGGGATT
B29: GCAUAUC (DNA:RNA)
RNA: B4 RNA with C25G, U26C, G27A, G28U, U31C
DNA 1: CAATCTGAATTCCGGTCTCCC
DNA 2: TGGTGGCTACGACGGGATT
B30: GCGGCGC (DNA:RNA)
RNA: B4 RNA with C25G, U26C, A29C, U30G, U31C
DNA 1: CAATCTGAATTCCGGTCTCCC
DNA 2: TGGTGGCTACGACGGGATT
B31: AAAUAGC (DNA:RNA)
RNA: B1 RNA with U25A, U27A, A28U, G29A, C30G
DNA 1: CAATCTGAATTCCGGTCTCCC
DNA 2: TGGTGGCTACGACGGGATT

Numbering of substitutions follows the chain as printed; changes in the protein carry UniProt numbers. The list shows a part of the results.

The target of this experiment is T1, RBFOX1 RRM RbFoxmut (Fox-RRM*). The experiment can be described thus: EMSA; HiTS-Eq, 1 nM pool, 10 min; buffer printed only for the single-RNA assays: 10 mM Tris pH 7.5, 150 mM NaCl, 3.4 mM EDTA, 0.001% NP-40, 30 C. The conditions noted are these: tags: His6 N-terminal (pET28a); label: 5' 32P. The essentials:
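Relative association constants, normalised to the cognate motif, were derived by comparing read counts of each RNA species with those of the control reaction. The RNA sequenced was the free fraction, separated by 8% native PAGE after a 10 min equilibration in 50 µL of 1 nM 5′-radiolabelled RNA (7 randomized nucleotides) with increasing concentrations of purified wild-type or mutant RbFox RRM.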
On the technique in general: A gel shift assay detects complexes by their altered migration in electrophoresis.
With B1, the binding signal is 0.146 KA relative to UGCAUGU.
On to B2, for which the binding signal was 0.0632 KA relative to UGCAUGU.
Next, B3: 0.199 KA relative to UGCAUGU; B4: 0.0715 KA relative to UGCAUGU.
For B5 the value was 0.173 KA relative to UGCAUGU; for B6, 0.124 KA relative to UGCAUGU.
Next, B7: 0.142 KA relative to UGCAUGU.
As for B8, the binding signal is 0.124 KA relative to UGCAUGU.
As to B9, the binding signal is 0.097 KA relative to UGCAUGU.
For B10 the value was 0.0647 KA relative to UGCAUGU.
Next, B11: 0.11 KA relative to UGCAUGU.
Consider B12, for which the binding signal is 0.103 KA relative to UGCAUGU.
Next, B13: 0.0641 KA relative to UGCAUGU; B14: 0.0443 KA relative to UGCAUGU.
Next, B15: 0.0711 KA relative to UGCAUGU; B16: 0.0875 KA relative to UGCAUGU; B17: 0.0739 KA relative to UGCAUGU.
For B18 the value was 0.0764 KA relative to UGCAUGU; for B19, 0.064 KA relative to UGCAUGU.
Take B20: the binding signal is 0.13 KA relative to UGCAUGU.
Next, B21: 0.0677 KA relative to UGCAUGU; B22: 0.115 KA relative to UGCAUGU; B23: 0.0977 KA relative to UGCAUGU.
For B24 the value was 0.0948 KA relative to UGCAUGU.
Next, B25: 0.233 KA relative to UGCAUGU; B26: 0.0981 KA relative to UGCAUGU; B27: 0.125 KA relative to UGCAUGU.
As for B28, the binding signal is 0.0735 KA relative to UGCAUGU.
Next, B29: 0.073 KA relative to UGCAUGU; B30: 0.103 KA relative to UGCAUGU.
For B31 the value was 0.0833 KA relative to UGCAUGU.
